Source: PubChem BioAssay AID485281 (National Center for Advancing Translational Sciences (NCATS), 2010)
Several values for one entry are separate records, joined by “and”; a condition that tells them apart may be missing. Equal entries are not always repeated. Among all 350,000 compounds or so, about 260 (0.074%) were called active. Inconclusive results, whose numbers are uncertain, are shown with a selection of clear calls. The call rests on the fitted dose curve; in most records, active means well fitted inhibition curve with a large enough effect; inconclusive means small, poorly fitted or top-dose-only effect; inactive means no such curve, though single readings can be large or run the other way. Potencies of inconclusive entries are doubtful fits and often do not repeat.

These compounds were tested against Ferritin light chain (Equus caballus) (UniProt P02791) (assay: qHTS Assay for Identification of Novel General Anesthetics). Settings: apoferritin/1-aminoanthracene competitive binding, fluorescence; activity change, negative = displacement: at 77.5 µM (top of the series).
Chain of UniProt P02791 (P02791 whole entry, looked up): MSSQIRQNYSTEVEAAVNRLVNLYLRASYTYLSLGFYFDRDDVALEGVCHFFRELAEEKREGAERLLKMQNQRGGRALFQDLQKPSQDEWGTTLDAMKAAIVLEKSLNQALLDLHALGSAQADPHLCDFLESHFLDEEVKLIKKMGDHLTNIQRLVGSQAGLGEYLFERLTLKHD
How it was run: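 In PBS, apoferritin at 10 uM is loaded with 1-AMA from a 50% saturated solution. After 10 min of compound exposure at ambient temperature, reduced 535 nm fluorescence indicates probe displacement.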
Further: nearly all actives have a fitted effect of over 20% in size.
On the % scale 0 is the no-effect control and ±100 the full control effect; potency means the concentration at half of the fitted maximal effect; tags describe the fitted curve by direction and shape.

Compound | Potency | activity change, negative = displacement
COc1ccc(-c2cc(C(F)(F)F)nc(NCc3cccnc3)n2)cc1 | inconclusive: 28.2 µM [inhibitor, partial curve] | –
CCCCN(C)C(=O)Cn1nc(-c2ccc(Cl)cc2)ccc1=O | inconclusive: 15.8 µM [inhibitor, partial curve] | –
COc1cccc(-n2cc(C(=O)OCc3ccc(Cl)cc3)c3ccccc3c2=O)c1 | – | inactive: -9.01%
O=C(NCc1cccs1)C12CC3CC(CC(C3)C1)C2 | inconclusive: 12.6 µM [inhibitor, partial curve] | –
CCC(CC)c1nnc(NC(=O)c2c(-c3ccccc3)noc2C)s1 | inconclusive: 31.6 µM [inhibitor, partial curve] | –
Cc1ccc(/C=N/NC(=O)c2ccc(OC3CCCC3)cc2)o1 | inconclusive: 11.2 µM [inhibitor, partial curve] | –
CCOC(=O)c1c(C)oc2nc(C)nc(NCc3cccc(Cl)c3)c12 | – | inactive: -8.44%
Nc1ccc(Nc2ccc([N+](=O)[O-])cc2[N+](=O)[O-])cc1 | inconclusive: 35.5 µM [inhibitor, partial curve] | –
Cc1ccc(C(=O)Nc2cccc(NC(=O)c3cccs3)c2)c(C)c1 | inconclusive: 7.08 µM [inhibitor, full curve, poor fit] | –
CCOC(=O)C1=C(N)Oc2ccc(Br)cc2C1C(C#N)C(=O)OCC (centres undefined) | inconclusive: 31.6 µM [inhibitor, single point] | –
Cc1cccc(NC(=O)c2cccc(Cn3cc(Br)c([N+](=O)[O-])n3)c2)c1C | inconclusive: 8.91 µM [inhibitor, partial curve] | –
Cn1c(N)c(C(=O)COC(=O)CC2CC3CCC2C3)c(=O)n(C)c1=O (centres undefined) | inconclusive: 31.6 µM [inhibitor, single point] | –
O=c1cc(-c2ccccc2Cl)oc2c(Br)ccc(O)c12 | inactive and inconclusive: 39.8 µM [inhibitor, partial curve] | –
CCc1ccc(-n2c(=O)c3cccnc3n2CC(=O)Nc2cc(OC)ccc2OC)cc1 | – | inactive: -9.99%
O=c1[nH]c(CN2CCc3ccccc32)nc2scc(-c3cccs3)c12 | inconclusive: 44.7 µM [inhibitor, partial curve] | –
COC(=O)c1ccc(CC(=O)c2ccc(O)cc2O)o1 | – | inactive: -21.5%
CCCCNCCCOc1cccc(Cl)c1 | – | inactive: -8.18%
O=C(N/N=C/c1ccccn1)c1ccc(S(=O)(=O)N2CCCCCC2)cc1 | inconclusive: 17.8 µM [inhibitor, partial curve] | –
Cc1ccc2nc(C)cc(N/N=C/c3ccccc3O)c2c1 | inconclusive: 28.2 µM [inhibitor, single point] | –
